{
  "source": "patent US20250345445A1",
  "about": "“ANTIBODY-DRUG CONJUGATE AND USE THEREOF” (CSPC MEGALITH BIOPHARMACEUTICAL CO., LTD., priority 2021, published 2025)",
  "key": {"[1]": {"test_system": "DiFi (human colorectal cancer cells)", "assay": "Proliferation inhibition, DiFi cells (MTT, […])", "type": "cell-based", "conditions": "[…] drug exposure", "experimental": "The specific concentration settings were as follows:\nCells in logarithmic growth phase were seeded in a 96-well plate (100 μL/well) at a certain number. […] Three replicate wells were set for each drug concentration, along with corresponding blank wells (only containing culture medium) and normal wells (drug concentration of 0). […] The plates were incubated at 37° C. for 4 hours, and then the supernatant was discarded. DMSO (analytical grade) was added (150 μL per well), and the plates were shaken on a microplate shaker to mix thoroughly. The plates were then wiped clean, and the optical density (OD) was measured at 550 nm using the microplate reader.\nThe inhibition rate of the cell growth was calculated with the following equation:\nInhibition Rate(%)=(OD Valuenormal well-OD Valuedrug well)/(OD Valuenormal well-OD Valueblank well)×100%\nBased on the inhibition rates at different concentrations, the half-maximal inhibitory concentration (IC50) of the drug was calculated using SPSS 19.0. The results are shown in Tables 2 and 3, and FIGS. 17 and 18."}, "[2]": {"test_system": "human lung adenocarcinoma PC9-GR (gefitinib-resistant cell) xenograft tumour", "assay": "Assay 5: efficacy of SWY2110-ADC on PC9-GR xenograft tumour", "type": "in vivo, NU/NU mice", "conditions": "1 mg/kg i.v./qw*4 w", "source_text": "The assay was terminated on day 28 after the administration."}},
  "data": [
    {"molecule": "SWY2110: EGFR antibody; heavy chains SEQ ID NO:29, light chains SEQ ID NO:30 (antibody) heavy: QVQLQESGPGLVKPSETLSLTCTVSGFSLSNYDVHWVRQAPGKGLEWLGVIWSGGNTDYNTPFTSRLTISVDTSKNQFSLKLSSVTAADTAVYYCARALDYYDYEFAYWGQGTLVTVSSASTKGPSVFPLAPSSKSTSGGTAALGCLVKDYFPEPVTVSWNSGALTSGVHTFPAVLQSSGLYSLSSVVTVPSSSLGTQTYICNVNHKPSNTKVDKRV[here human IgG1 Fc without letters] light: EIVLTQSPDFQSVTPKEKVTITCRASQSIGTNIHWYQQKPDQSPKLLIKYASESISGIPSRFSGSGSGTDFTLTINSLEAEDAATYYCQQNNEWPTSFGQGTKLEIKRTVAAPSVFIFPPSDEQLKSGTASVVCLLNNFYPREAKVQWKVDNALQSGNSQESVTEQDSKDSTYSLSSTLTLSKADYEKHKVYACEVTHQGLSSPVTKSFNRGEC", "values": [
      {"measurement": "IC50 value", "setting": "[1]", "result": 0.04394, "unit": "µg/mL"},
      {"measurement": "TGI(%) Day 28", "setting": "[2]", "result": 20.3, "unit": "%"},
      {"measurement": "Tumour Volume", "setting": "[2]; 28 days after administration", "result": "628.9 ± 290.0", "unit": "mm^3"}
    ]}
  ]
}
